Legend:
[1] = test system: rat primary glomerular mesangial cells; experiment: [Ca2+]i measurement in rat primary glomerular mesangial cells; assay type: cell-based
human TRPC3 [2] = molecular target: T1, human TRPC3 (Homo sapiens, UniProt Q13507); experiment: FMP assay in HEK293 cells stably expressing human TRPC3
T1 sequence (Q13507 1-921): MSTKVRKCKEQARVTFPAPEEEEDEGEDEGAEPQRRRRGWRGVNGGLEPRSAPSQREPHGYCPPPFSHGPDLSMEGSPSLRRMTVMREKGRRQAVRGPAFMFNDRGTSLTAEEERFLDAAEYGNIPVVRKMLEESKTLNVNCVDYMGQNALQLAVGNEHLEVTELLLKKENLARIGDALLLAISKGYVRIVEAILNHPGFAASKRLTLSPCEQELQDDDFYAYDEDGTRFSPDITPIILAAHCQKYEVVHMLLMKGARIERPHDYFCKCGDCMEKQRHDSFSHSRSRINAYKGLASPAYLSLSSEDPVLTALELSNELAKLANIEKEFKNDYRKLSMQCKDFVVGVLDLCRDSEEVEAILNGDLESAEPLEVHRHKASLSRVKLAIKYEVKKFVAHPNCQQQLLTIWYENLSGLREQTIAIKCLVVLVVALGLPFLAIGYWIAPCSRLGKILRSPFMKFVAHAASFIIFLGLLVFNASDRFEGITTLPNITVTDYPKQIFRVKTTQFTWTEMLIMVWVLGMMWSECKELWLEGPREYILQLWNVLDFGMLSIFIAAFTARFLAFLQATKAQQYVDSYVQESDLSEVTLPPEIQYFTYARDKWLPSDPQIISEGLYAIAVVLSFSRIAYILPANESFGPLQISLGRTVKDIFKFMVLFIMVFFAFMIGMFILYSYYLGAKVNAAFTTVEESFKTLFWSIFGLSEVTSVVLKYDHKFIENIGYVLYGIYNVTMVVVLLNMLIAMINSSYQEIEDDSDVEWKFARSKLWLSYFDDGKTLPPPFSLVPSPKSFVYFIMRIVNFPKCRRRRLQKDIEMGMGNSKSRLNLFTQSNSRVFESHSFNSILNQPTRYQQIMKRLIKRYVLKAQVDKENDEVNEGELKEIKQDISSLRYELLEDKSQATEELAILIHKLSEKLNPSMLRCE

human TRPC3 [3] = molecular target: T1, human TRPC3; experiment: Fluorescence Ca2+ assay in TRPC3 cells; assay type: cell-based; details: normal extracellular solution, 2 mM Ca2+
human TRPC3 [4] = molecular target: T1, human TRPC3; experiment: Whole-cell recordings in HEK293 cells expressing human TRPC3; assay type: cell-based; details: 10 μM; bath 0.5 mM Ca2+
parental HEK293 cells [5] = experiment: FMP assay in parental HEK293 cells; assay type: cell-based
parental HEK293 cells [6] = experiment: Ca2+ assay in parental HEK293 cells; assay type: cell-based
TRPC4β+MOR = molecular target: T2, TRPC4β+MOR (Mus musculus, UniProt Q9QUQ5); experiment: Fluorescence Ca2+ assay in HEK293 cells coexpressing MOR and TRPC4β
T2 sequence (Q9QUQ5 1-890 isoform Q9QUQ5-2): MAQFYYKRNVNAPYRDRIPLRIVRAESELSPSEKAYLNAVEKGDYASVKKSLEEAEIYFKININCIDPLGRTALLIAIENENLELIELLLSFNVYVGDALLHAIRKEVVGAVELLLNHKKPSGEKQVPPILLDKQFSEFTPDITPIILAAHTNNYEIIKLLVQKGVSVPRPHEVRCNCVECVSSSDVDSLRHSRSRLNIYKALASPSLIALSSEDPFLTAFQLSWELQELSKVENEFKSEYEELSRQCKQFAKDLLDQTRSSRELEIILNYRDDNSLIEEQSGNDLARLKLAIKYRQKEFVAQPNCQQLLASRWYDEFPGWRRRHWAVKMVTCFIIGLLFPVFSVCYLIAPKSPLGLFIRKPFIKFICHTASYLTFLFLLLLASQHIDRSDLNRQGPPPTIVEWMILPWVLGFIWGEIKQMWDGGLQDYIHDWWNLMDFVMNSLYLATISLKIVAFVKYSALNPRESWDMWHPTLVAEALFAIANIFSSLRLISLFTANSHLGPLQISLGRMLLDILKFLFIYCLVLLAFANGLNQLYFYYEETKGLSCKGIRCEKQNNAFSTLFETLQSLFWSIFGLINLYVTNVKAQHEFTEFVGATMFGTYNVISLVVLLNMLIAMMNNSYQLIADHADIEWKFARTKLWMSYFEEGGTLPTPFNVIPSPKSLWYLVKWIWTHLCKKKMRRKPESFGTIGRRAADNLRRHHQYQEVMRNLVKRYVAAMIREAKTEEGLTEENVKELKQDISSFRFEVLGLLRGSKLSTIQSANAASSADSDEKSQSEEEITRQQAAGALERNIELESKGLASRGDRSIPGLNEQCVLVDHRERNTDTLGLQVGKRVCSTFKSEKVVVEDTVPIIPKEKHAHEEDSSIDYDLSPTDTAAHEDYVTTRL

Q: With NCCOB(c1ccccc1)c1ccccc1 [2-APB, 2-aminoethoxydiphenyl borate, reference compound] as the compound, how does the “effect on 4p-evoked [Ca2+]i increases in rat glomerular mesangial cells” value ([1]; 30 μM 2-APB, 2 min pretreatment, 4p 1 μM) read?
A: The value was “abolished”.

Q: Which results are given for CCOC(=O)N1CCC(c2cc(O)n3nc(C)c(-c4ccc(C(F)(F)F)cc4)c3n2)CC1 [Compound 4n, Ethyl 4-(7-Hydroxy-2-methyl-3-(4-(trifluoromethyl)phenyl)-pyrazolo[1,5-a]pyrimidin-5-yl)piperidine-1-carboxylate]?
A: increase in potency on TRPC3 as compared to the same compound on TRPC6 (human TRPC3 [2]; TRPC3 versus TRPC6): > 70 fold; increase in potency on TRPC3 as compared to other compounds (human TRPC3 [2]; versus 4m, 4o, 4p): > 7 fold

Q: Which “[Ca2+]i rise in TRPC3 cells” value (human TRPC3 [3]) does the source give for CCOC(=O)N1CCC(c2cc(O)n3nc(C)c(-c4ccc(F)cc4)c3n2)CC1 [Compound 4o, Ethyl 4-(3-(4-Fluorophenyl)-7-hydroxy-2-methylpyrazolo[1,5-a]-pyrimidin-5-yl)piperidine-1-carboxylate] here?
A: Its value is “failed to elicit”.

Q: What about the TRPC3 whole-cell currents (human TRPC3 [4]) of the same compound?
A: The TRPC3 whole-cell currents was “elicited TRPC3 currents”.

Q: And the “membrane depolarization in parental HEK293 cells” value (parental HEK293 cells [5])?
A: The value was “did not induce membrane depolarization”.

Q: What about the “[Ca2+]i increase in parental HEK293 cells” value (parental HEK293 cells [6]) of the same compound?
A: The value was “but not compound 4o”.

Q: And the “membrane depolarization in TRPC3 cells” value (human TRPC3 [2]; normal extracellular solution, 2 mM Ca2+)?
A: The value was “failed to elicit membrane depolarization”.

Q: What about the “effect on DAMGO-evoked Ca2+ response in MOR/TRPC4β cells” value (TRPC4β+MOR; DAMGO 1 μM) of the same compound?
A: The value was “nor did it alter the DMAGO-evoked response”.

Q: What about the “Ca2+ response in MOR/TRPC4β cells (stimulation)” value (TRPC4β+MOR; compound alone) of the same compound?
A: The value was “did not elicit a Ca^2+ response”.

Q: Cc1nn2c(O)cc(C3CCN(C(=O)OCc4ccccc4)CC3)nc2c1-c1ccc(F)cc1 [Compound 4p, Benzyl 4-(3-(4-Fluorophenyl)-7-hydroxy-2-methylpyrazolo[1,5-a]pyrimidin-5-yl)piperidine-1-carboxylate] was tested. Which “[Ca2+]i rise in rat glomerular mesangial cells” value ([1]; 1 μM, Fluo-4 fluorescence) did it give?
A: The value was “evoked marked increases in [Ca^2+]i”.

Reference: PMC5720685 (Journal of medicinal chemistry, 2017)
